# Laboratory results reported in the BET-seq Pho4 binding data (Le et al. 2018).
# Some of the results follow. These are noisy estimates, calculated here from bound and input reads.
# Biological target: T1, Pho4 (S. cerevisiae) (UniProt P07270)
# T1 sequence: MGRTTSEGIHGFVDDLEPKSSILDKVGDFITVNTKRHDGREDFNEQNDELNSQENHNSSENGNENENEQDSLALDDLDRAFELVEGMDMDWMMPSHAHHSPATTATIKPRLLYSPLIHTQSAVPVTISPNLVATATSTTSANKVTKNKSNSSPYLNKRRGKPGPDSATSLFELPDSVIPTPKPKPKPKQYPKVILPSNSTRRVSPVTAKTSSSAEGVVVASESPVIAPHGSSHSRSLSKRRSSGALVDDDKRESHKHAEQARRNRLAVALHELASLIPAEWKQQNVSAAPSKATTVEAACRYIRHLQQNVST
# Assay: relative binding free energy (BET-seq); higher = weaker binding
# Conditions: reference: library average
row,Sequence,relative binding free energy
1,AGCGTCACGTGATGAG,0.27 kcal/mol
2,GTCACCACGTGGGTGG,-0.17 kcal/mol
3,TAAGGCACGTGTTCGG,-0.16 kcal/mol
4,GGTAGCACGTGGAATG,0 kcal/mol
5,TCTTGCACGTGGGTGT,-0.16 kcal/mol
6,AAGGACACGTGTGGGA,0.02 kcal/mol
7,GGTGGCACGTGTTTTT,0.09 kcal/mol
8,ACTGGCACGTGTATTA,0.05 kcal/mol
9,ACTGTCACGTGTTAGG,-0.03 kcal/mol
10,CAATGCACGTGTTTGG,0.11 kcal/mol
11,CGGGGCACGTGCATTG,0.03 kcal/mol
12,TTAAACACGTGTGTCG,-0.06 kcal/mol
13,GGAAGCACGTGGACTG,-0.03 kcal/mol
14,GGGGACACGTGGGGTG,-0.04 kcal/mol
15,CCTTGCACGTGTGGGG,-0.03 kcal/mol
16,TAGTGCACGTGATGGT,0.11 kcal/mol
17,GTAGACACGTGGGGGG,-0.15 kcal/mol
18,TCGGTCACGTGAGGAT,0.24 kcal/mol
19,AAGTTCACGTGTAGCT,0.25 kcal/mol
20,GTTATCACGTGTGAGC,0.41 kcal/mol
21,CTTGTCACGTGCGTAG,0.04 kcal/mol
22,TTTAACACGTGTGGTT,0.09 kcal/mol
23,ATGTACACGTGAAGGA,0.4 kcal/mol

row,Sequence,relative binding free energy
1,ATTGTCACGTGTGAAT,0.22 kcal/mol
2,CTCTTCACGTGTAGGG,0.16 kcal/mol
3,CGGGGCACGTGAGATT,0.28 kcal/mol
4,GCGGACACGTGGTGAT,0.02 kcal/mol
5,GCGGCCACGTGTTGTG,0.05 kcal/mol
6,GGATTCACGTGGAGGC,0.29 kcal/mol
7,AGAAGCACGTGCGGGT,-0.12 kcal/mol
8,CAAGGCACGTGGGGTT,-0.22 kcal/mol
9,GGTTGCACGTGTTTTC,0.22 kcal/mol
10,GATAGCACGTGGGTGC,-0.16 kcal/mol
11,TTTTGCACGTGAAAGT,0.27 kcal/mol
12,GCTGTCACGTGTGGAT,0.04 kcal/mol
13,ATCGTCACGTGGCGTT,0.04 kcal/mol
14,AGTTGCACGTGCCAGG,-0.06 kcal/mol
15,TGTTGCACGTGATTTT,0.12 kcal/mol
16,GTGTTCACGTGTAAGC,0.4 kcal/mol
17,CCGGTCACGTGTGGCT,0.21 kcal/mol
18,TCGGGCACGTGTCGCG,-0.04 kcal/mol
19,AGGGCCACGTGGTGGA,-0.16 kcal/mol
20,GGGGACACGTGATGAT,0.35 kcal/mol
21,GGTATCACGTGTGGAC,0.34 kcal/mol
22,GAGGGCACGTGAGTAA,0.15 kcal/mol
23,CGTGTCACGTGACAGG,0.18 kcal/mol

row,Sequence,relative binding free energy
1,CGTTTCACGTGCTTTG,0.32 kcal/mol
2,TGTATCACGTGGAGTC,0.31 kcal/mol
3,GTTAGCACGTGAGCTG,0.12 kcal/mol
4,ATTATCACGTGAAAGG,0.42 kcal/mol
5,CTTTGCACGTGGGGAA,-0.12 kcal/mol
6,GGTGTCACGTGGGGGA,0.08 kcal/mol
7,AGGTTCACGTGGGCGA,0.17 kcal/mol
8,CTGGACACGTGTGGAA,0.16 kcal/mol
9,GAGGCCACGTGTGTTT,0.13 kcal/mol
10,GTTTTCACGTGTTCAA,0.26 kcal/mol
11,TTGTCCACGTGTCGGG,-0.06 kcal/mol
12,GTGTCCACGTGTCTAG,0.24 kcal/mol
13,TGGTGCACGTGTTAAC,-0.02 kcal/mol
14,TACGGCACGTGGCGGG,-0.18 kcal/mol
15,TTTGACACGTGATTGG,0.11 kcal/mol
16,GGTTTCACGTGATTTT,0.42 kcal/mol
17,ATGAGCACGTGTTACG,-0.09 kcal/mol
18,GCTGGCACGTGGGTTC,-0.03 kcal/mol
19,GAAGGCACGTGAAGTT,0.23 kcal/mol
20,TGTGTCACGTGGAATT,0.12 kcal/mol
21,TTCTACACGTGGGATT,0.08 kcal/mol
22,GTCTTCACGTGTTTTG,0.24 kcal/mol
23,TAAGTCACGTGTTAGA,0.08 kcal/mol

row,Sequence,relative binding free energy
1,ATGTGCACGTGGGACG,-0.07 kcal/mol
2,AGTTACACGTGATATG,0.29 kcal/mol
3,AGGTTCACGTGCTCGG,0.15 kcal/mol
4,TCGGCCACGTGGTTGT,-0.07 kcal/mol
5,ATATGCACGTGTTGCT,0.01 kcal/mol
6,GATGGCACGTGGGACG,-0.18 kcal/mol
7,TTGGGCACGTGTGACC,0 kcal/mol
8,GTTGGCACGTGAGGGT,0.25 kcal/mol
9,AGGGGCACGTGTCGGG,-0.18 kcal/mol
10,GTCAGCACGTGTGTTG,-0.1 kcal/mol
11,TTTGCCACGTGCAGTG,-0.07 kcal/mol
12,TGAGGCACGTGTGAGC,-0.19 kcal/mol
13,GGGGTCACGTGTAGTC,0.19 kcal/mol
14,TGAGGCACGTGTCGAG,-0.09 kcal/mol
15,CGCGTCACGTGGGTTA,-0.15 kcal/mol
16,TTATCCACGTGAGTTT,0.23 kcal/mol
17,TTCGGCACGTGGTGTC,-0.21 kcal/mol
18,TGTAACACGTGTGTCT,0.02 kcal/mol
19,GAAGTCACGTGGGGGC,0.04 kcal/mol
20,CATGACACGTGTGTGT,0.02 kcal/mol
21,GCATGCACGTGGGGGG,-0.17 kcal/mol
22,GGGGACACGTGTGGTT,0.11 kcal/mol
23,GGGCGCACGTGGGACT,-0.03 kcal/mol

row,Sequence,relative binding free energy
1,TTTTTCACGTGTCATA,0.26 kcal/mol
2,TTTTCCACGTGGTTCA,0.13 kcal/mol
3,TATTTCACGTGCAATG,0.24 kcal/mol
4,TTGGGCACGTGGCGGT,-0.1 kcal/mol
5,TGGCTCACGTGGGGTA,0.13 kcal/mol
6,TGTAACACGTGTACTG,-0.04 kcal/mol
7,TTAAGCACGTGTTCTT,-0.16 kcal/mol
8,ATGTACACGTGAGTCG,0.27 kcal/mol
9,GGTCGCACGTGTATAG,0.05 kcal/mol
10,TCGGCCACGTGGTTGG,-0.01 kcal/mol
11,TATGTCACGTGGTAGT,0 kcal/mol
12,ATTGGCACGTGGATCT,-0.13 kcal/mol
13,CTTTACACGTGCGGGG,0.16 kcal/mol
14,ATGTGCACGTGCGAGG,-0.06 kcal/mol
15,GATAGCACGTGAGTGG,0.19 kcal/mol
16,TTGAGCACGTGCAAGT,-0.03 kcal/mol
17,ATCGACACGTGTTGTA,0.1 kcal/mol
18,GCCTTCACGTGGGTTT,0.32 kcal/mol
19,ATTAACACGTGTAGCT,0.1 kcal/mol
20,GCTGTCACGTGAGAGA,0.52 kcal/mol
21,GGAATCACGTGTTGGG,0.23 kcal/mol
22,AATTACACGTGAGTTG,0.39 kcal/mol
23,GGGGTCACGTGATATT,0.34 kcal/mol
